Test results taken from paper PMC7527816, “Molecular basis for the bifunctional Uba4–Urm1 sulfur‐relay system in tRNA thiolation and ubiquitin‐like conjugation” (The EMBO Journal, 2020).
Numbering of substitutions follows the chain as printed. Names and notes keep the numbering of the source. Results are given in words; binding and its absence hold for the method and conditions named. Some results given as binding are weak or reduced against the parent protein; the word gives no strength. For some assays here: Tags and fused reporters may be left off the sequences shown. Blank lines part the entries; values can stand above or below the binder they belong to.

How the values were obtained:
[1] = target: CtUba4 rhodanese-like domain R398A/R399A (Chaetomium thermophilum) (UniProt G0SC54); assay: SEC + SEC-MALS; SEC profiles and static light scattering (RALS/LALS) after Superdex 75 10/300 GL; 1 mg/ml; 20 mM Tris pH 7.5, 150 mM NaCl, 1 mM DTT; both purified
[2] = target: human MOCS3 rhodanese-like domain (335-460) (human) (UniProt O95396); assay: SEC; 125 μg of purified protein on a Superdex 75 10/300 GL analytical column (Fig 1C); both purified
[3] = target: T1, GST-CtUrm1 (Chaetomium thermophilum) (UniProt G0SE11); assay: pull-down; GST-CtUrm1 on Glutathione Sepharose 4B; with 1 mM ATP; 100 mM MES pH 6.0, 100 mM NaCl, 2 mM MgCl2; 30 min at 37°C, then 90 min on beads at room temperature; Coomassie; both purified
T1 sequence: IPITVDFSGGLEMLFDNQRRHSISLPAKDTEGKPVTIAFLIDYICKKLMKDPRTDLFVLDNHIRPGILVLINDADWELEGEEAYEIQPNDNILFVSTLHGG

[4] = target: T2, Chaetomium thermophilum Urm1 (ubiquitin-related modifier 1) (Chaetomium thermophilum) (UniProt G0SE11); assay: SEC; 20 μM CtUba4 WT or mutant and 30 μM CtUrm1 with 40 μM ATP in 100 mM MES pH 6.0, 100 mM NaCl, 2 mM MgCl2, 37°C for 30 min; Superdex 200 Increase 10/300 GL; complex fractions on SDS-PAGE; both purified
T2 sequence: T1 sequence

[5] = target: T1, GST-CtUrm1 (Chaetomium thermophilum); assay: pull-down; GST-CtUrm1 on Glutathione Sepharose 4B; with 1 mM AMP-PNP; 100 mM MES pH 6.0, 100 mM NaCl, 2 mM MgCl2; 30 min at 37°C; Coomassie; both purified
[6] = target: T1, GST-CtUrm1 (Chaetomium thermophilum); assay: pull-down; GST-CtUrm1 on Glutathione Sepharose 4B; without nucleotide; 100 mM MES pH 6.0, 100 mM NaCl, 2 mM MgCl2; 30 min at 37°C; Coomassie; both purified
[7] = target: T2, Chaetomium thermophilum Urm1 (ubiquitin-related modifier 1) (Chaetomium thermophilum); assay: SEC-MALS; static light scattering (RALS/LALS, Malvern OMNISEC) after Superdex 200 Increase 10/300 GL; apo and CtUrm1-bound CtUba4; 1 mg/ml; 100 mM MES pH 6.0, 100 mM NaCl, 2 mM MgCl2; both purified
[8] = target: T2, Chaetomium thermophilum Urm1 (ubiquitin-related modifier 1) (Chaetomium thermophilum); assay: crystal structure; CtUba4 C202K, CtUrm1 and ATP (1.00:1.25:2.25) incubated in 100 mM MES pH 6.0, 100 mM NaCl, 2 mM MgCl2 at 37°C for 30 min, complex isolated on Superdex 200 Increase; crystals in 0.1 M HEPES pH 7.5, 20% PEG 3350; 3.15 Å; both purified

binding [1]: no binding (tested: 1 mg/ml)
B1: CtUba4 rhodanese-like domain R398A/R399A (domain or fragment, UniProt G0SC54 319-444)
chain: RITATAYNEKRRNGELGEHILLDTREKEHFSFGSIPGAVNVPFSKFLVKASSIKREGNSPAELLPMQPASDEAPIVVVCAAGQDSQEVVEKLKELGLDNGGKRKIMDIVGGMKAWRDEVDPDFPFI

binding [2]: no binding (tested: 125 μg applied)
B2: human MOCS3 rhodanese-like domain (335-460) (domain or fragment, UniProt O95396 335-460)
chain: RVSVTDYKRLLDSGAFHLLLDVRPQVEVDICRLPHALHIPLKHLERRDAESLKLLKEAIWEEKQGTQEGAAVPIYVICKLGNDSQKAVKILQSLSAAQELDPLTVRDVVGGLMAWAAKIDGTFPQY

binding [3]: binds
B3: CtUba4 C202S, full length (enzyme, UniProt G0SC54 1-444)
chain: MGSTQKSLSKEEIERYSRQMIVPGMGKEGQLRLMNAKVLIIGAGGLGCPAAQYLAGAGVGTIGIVDGDSVETSNLHRQVAHATKRVGMLKVDSLITHLIEINPLPVYVPYRFDLTPQNAAQIIKPWDVILDCTDNPATRYLISDVCVLLGKPLVSAASVQKSGQLIVLNCPPTPQGVVNKKAAPCYRCCFKKPPPPSAQTSSGEAGIMGPVVGMMGVAQAGEAIKILVSQLHMPPKEGEEVSPEKNLVQPTLLIYTYDLNSAIGPYSFRALKMGGRKKDCFACGENSTLTLDGIKSGNPNYVQFCGNMTQSTNLAPEDRITATAYNEKRRNGELGEHILLDTREKEHFSFGSIPGAVNVPFSKFLVKASSIKREGNSPAELLPMQPASDEAPIVVVCRRGQDSQEVVEKLKELGLDNGGKRKIMDIVGGMKAWRDEVDPDFPFI

binding [3]: binds
B4: CtUba4 C202A, full length (enzyme, UniProt G0SC54 1-444)
chain: B3 chain with S202A

binding [3]: binds
binding [4]: binds
B5: CtUba4 C397S, full length (enzyme, UniProt G0SC54 1-444)
chain: B3 chain with S202C, C397S

binding [4]: binds
B6: CtUba4 C202S/C397S, full length (enzyme, UniProt G0SC54 1-444)
chain: B3 chain with C397S

binding [4]: binds
B7: CtUba4 Q401A/D402A, full length (enzyme, UniProt G0SC54 1-444)
chain: B3 chain with S202C, Q401A, D402A

binding [4]: binds
B8: CtUba4 R398A/R399A, full length (enzyme, UniProt G0SC54 1-444)
chain: B3 chain with S202C, R398A, R399A

B9: Chaetomium thermophilum Uba4 (ubiquitin-like protein activator 4), full length, wild type (enzyme, UniProt G0SC54 1-444, looked up)
chain: B3 chain with S202C
notes: Uba4 of Chaetomium thermophilum, UniProt G0SC54, full length aa 1-444; Expressed from pETM30 (N-terminal His6 and GST) and pETM11 (N-terminal His6); tags cleaved with TEV; Codon-optimised gene; also called CtUba4; CtUba4 FL; source: E. coli BL21(DE3) pRARE, purified (Ni-NTA, TEV cleavage, second Ni-NTA, SEC Superdex 200); not shown: His6, N-terminal, cleaved
binding [5]: binds
binding [6]: no binding (condition: without ATP)
binding [3]: binds
binding [7]: binds
binding [4]: binds

binding [3]: binds
B10: CtUba4 306GGS314, full length (linker residues 306-314 replaced by three Gly-Gly-Ser repeats) (enzyme, UniProt G0SC54 1-444)
chain: B3 chain with S202C, N307G, M308S, T309G, Q310G, T312G, N313G, L314S

B11: CtUba4 C202K, full length (enzyme, Chaetomium thermophilum, UniProt G0SC54 1-444, looked up)
chain: B3 chain with S202K
notes: Uba4 of Chaetomium thermophilum, UniProt G0SC54, full length aa 1-444 with C202K; With Urm1 and ATP the epsilon-amino group of Lys202 forms a non-hydrolysable iso-peptide bond with Gly111 of Urm1; The RHD is present in the crystals but has no density; source: E. coli BL21(DE3) pRARE, purified (Ni-NTA, TEV cleavage, SEC Superdex 200); not shown: His6, N-terminal, cleaved
binding [3]: binds
binding [8]: binds
